By IC50 is meant the dose at which the fit gives 50% viability; where the fit passes the top or lowest dose, that dose stands as a limit. AUC sums up the same curve from the lowest dose to the 256-fold higher top dose; values near 1 show little effect. The top dose, if marked as inferred, comes from the curve model; the source does not state it. For some assays here: An entry number marks a drug with two screens in the source, which often give different values.
Key:
[1] = compound: NC(=O)c1ncn([C@@H]2O[C@H](CO)[C@@H](O)[C@H]2O)c1N [AICAR]; assay: Viability of human cancer cell lines after 72 h of drug (GDSC screen); settings: top dose 2000 µM; top dose inferred
Protocol: (§1)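 Human cancer cell lines in 384-well plates, medium with 10% serum, drug for 72 h over a 256-fold dose range (nine 2-fold or five 4-fold steps up to the top dose). Adherent lines were fixed and stained with the nucleic acid dye Syto60, suspension lines read with resazurin; signal relative to control wells, capped at 0 and 100%. One two-parameter sigmoid per drug and line, fitted in a mixed model over all curves with the slope shared within a line.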

[2] = compound: O=c1[nH]c2ccccc2n1C1CCN(Cc2ccc(-c3[nH]c4cc5ncnc5cc4nc3-c3ccccc3)cc2)CC1 [AKT inhibitor VIII]; assay: as above; settings: top dose inferred
Protocol: as §1

[3] = top dose 2.56 µM, screen: GDSC drug entry 171
[4] = top dose 10.24 µM, screen: GDSC drug entry 228

Row | Cell Line | AUC [1] | IC50 [1] [µM] | AUC [2, 3] | IC50 [2, 3] [µM] | AUC [2, 4] | IC50 [2, 4] [µM]
1 | MZ2-MEL (melanoma, adherent) | 0.907 | > 2000 | 0.96 | > 2.56 | 0.713 | 2.87
2 | Mewo (melanoma, adherent) | 0.861 | > 2000 | 0.972 | > 2.56 | 0.979 | > 10.2
3 | Mo-T (hairy cell leukaemia, suspension) | 0.704 | 476 | 0.987 | > 2.56 | 0.691 | 2.22
4 | NALM-6 (B-cell leukaemia, suspension) | 0.567 | 184 | 0.895 | 2.21 | 0.361 | 0.284
5 | NB1 (neuroblastoma, semi-adherent) | 0.845 | 1680 | 0.974 | > 2.56 | – | –
6 | NB5 (neuroblastoma, adherent) | 0.926 | > 2000 | 0.985 | > 2.56 | 0.933 | > 10.2
7 | NB10 (neuroblastoma, adherent) | 0.968 | > 2000 | 0.988 | > 2.56 | 0.977 | > 10.2
8 | NB12 (neuroblastoma, adherent) | 0.961 | > 2000 | 0.918 | > 2.56 | 0.746 | 4.23
9 | NB13 (neuroblastoma, adherent) | 0.99 | > 2000 | 0.99 | > 2.56 | 0.949 | > 10.2
10 | NB14 (neuroblastoma, adherent) | 0.937 | > 2000 | 0.976 | > 2.56 | 0.962 | > 10.2
11 | NB17 (neuroblastoma, adherent) | 0.908 | > 2000 | 0.983 | > 2.56 | 0.914 | > 10.2
12 | NB69 (neuroblastoma, adherent) | 0.83 | 1060 | 0.955 | > 2.56 | 0.876 | 8.21
13 | NB(TU)1-10 (neuroblastoma, adherent) | 0.959 | > 2000 | 0.977 | > 2.56 | 0.982 | > 10.2
14 | NB-4 (acute myeloid leukaemia, suspension) | 0.724 | 468 | 0.985 | > 2.56 | 0.698 | 2.04
15 | NCC021 (kidney, adherent) | 0.919 | > 2000 | – | – | 0.91 | > 10.2
16 | NCI-H23 (lung adenocarcinoma, adherent) | 0.927 | > 2000 | 0.988 | > 2.56 | 0.939 | > 10.2
17 | NCI-H28 (mesothelioma, adherent) | 0.797 | 1310 | 0.96 | > 2.56 | 0.954 | > 10.2
18 | NCI-H64 (small cell lung carcinoma, suspension) | 0.838 | 887 | 0.98 | > 2.56 | 0.837 | 4.52
19 | NCI-H69 (small cell lung carcinoma, suspension) | 0.877 | > 2000 | 0.982 | > 2.56 | 0.831 | 7.54
20 | NCI-H82 (small cell lung carcinoma, suspension) | 0.642 | 301 | 0.989 | > 2.56 | 0.952 | > 10.2
21 | NCI-H187 (small cell lung carcinoma, suspension) | 0.872 | > 2000 | 0.982 | > 2.56 | 0.86 | 9.84
22 | NCI-H209 (small cell lung carcinoma, suspension) | 0.88 | > 2000 | 0.979 | > 2.56 | 0.849 | 8.53
23 | NCI-H226 (lung squamous cell carcinoma, adherent) | 0.93 | > 2000 | 0.982 | > 2.56 | 0.919 | > 10.2
24 | NCI-H292 (lung adenocarcinoma, adherent) | 0.944 | > 2000 | 0.888 | > 2.56 | 0.84 | 9.29
25 | NCI-H322M (lung adenocarcinoma, suspension) | 0.911 | > 2000 | 0.981 | > 2.56 | 0.852 | > 10.2
26 | NCI-H358 (lung adenocarcinoma, adherent) | 0.872 | > 2000 | 0.893 | > 2.56 | 0.812 | 6.28
27 | NCI-H441 (lung adenocarcinoma, adherent) | 0.85 | > 2000 | 0.964 | > 2.56 | 0.935 | > 10.2
28 | NCI-H446 (small cell lung carcinoma, semi-adherent) | 0.945 | > 2000 | 0.984 | > 2.56 | 0.859 | 9.51
29 | NCI-H460 (large cell lung carcinoma, adherent) | 0.919 | > 2000 | 0.884 | 2.31 | 0.98 | > 10.2
30 | NCI-H510A (small cell lung carcinoma, semi-adherent) | 0.788 | 802 | 0.983 | > 2.56 | 0.928 | > 10.2

— the supplement of paper PMC4967469
